# In the supplement of paper PMC7826260:
# The list shows a part of the results. Viral Rep nickase domains cut single-stranded DNA in vitro (3 µM enzyme, 1 h, 37 °C); shown is the middle of each 90-letter strand. The score is log2 (uncut reads / reads without enzyme); more negative means more cut, near 0 not cut, and no call is made. Because reads are shares of a total, they shift together; where an enzyme cuts many sequences, the uncut ones exceed 0.
# Assays:
# Test in all cases: uncleaved DNA left, log2 of reads against the no-enzyme library (log2 ratio); higher = less cleavage (more negative = more Rep cleavage of the k-mer); sequences stand for … in CTCGTCCG…ACCGGAGA
# [1] = tested on: T1, Rep nickase domain of Muscovy duck circovirus
# T1 sequence (residues 1-111, tag not shown): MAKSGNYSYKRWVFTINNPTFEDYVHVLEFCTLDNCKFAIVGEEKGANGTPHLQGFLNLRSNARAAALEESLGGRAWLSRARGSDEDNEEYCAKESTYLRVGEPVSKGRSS
# Protocol: (§1)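 A pool of 90-nt single-stranded DNAs with seven random bases just before the constant AC of the nick site (name = the seven bases) was cut by 3 µM recombinant His6-SUMO-tagged Rep nickase domain (300 nM DNA, 50 mM HEPES pH 8.0, 50 mM NaCl, 1 mM MnCl2, 1 h, 37 °C, three replicates). Uncut DNA was amplified and sequenced.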
# [2] = tested on: T2, Rep nickase domain of banana bunchy top virus
# T2 sequence (residues 1-94, tag not shown): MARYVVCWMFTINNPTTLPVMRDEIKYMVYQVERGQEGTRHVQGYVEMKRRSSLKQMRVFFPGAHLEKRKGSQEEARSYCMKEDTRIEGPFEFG
# Protocol: as §1
# [3] = tested on: T3, Rep nickase domain of cabbage leaf curl virus
# T3 sequence (residues 1-116, tag not shown): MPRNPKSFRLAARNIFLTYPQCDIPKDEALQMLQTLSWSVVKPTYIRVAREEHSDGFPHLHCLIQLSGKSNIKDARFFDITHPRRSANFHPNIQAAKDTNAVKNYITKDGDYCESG
# Protocol: as §1
# [4] = tested on: T4, Rep nickase domain of chickpea chlorotic dwarf virus
# T4 sequence (residues 1-124, tag not shown): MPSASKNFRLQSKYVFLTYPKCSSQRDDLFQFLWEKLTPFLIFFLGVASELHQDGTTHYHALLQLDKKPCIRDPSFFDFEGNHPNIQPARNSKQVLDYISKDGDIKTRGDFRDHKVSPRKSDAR
# Protocol: as §1
# [5] = tested on: T5, Rep nickase domain of faba bean necrotic yellows virus
# T5 sequence (residues 1-98, tag not shown): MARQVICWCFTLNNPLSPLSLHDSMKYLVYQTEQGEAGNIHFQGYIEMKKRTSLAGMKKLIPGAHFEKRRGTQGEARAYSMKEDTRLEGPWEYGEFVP
# Protocol: as §1
# [6] = tested on: T6, Rep nickase domain of maize striate mosaic virus
# T6 sequence (residues 1-117, tag not shown): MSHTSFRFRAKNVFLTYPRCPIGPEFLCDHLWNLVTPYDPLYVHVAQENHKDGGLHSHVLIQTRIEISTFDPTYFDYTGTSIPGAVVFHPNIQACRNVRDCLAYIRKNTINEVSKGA
# Protocol: as §1
# [7] = tested on: T7, Rep nickase domain of porcine circovirus 2
# T7 sequence (residues 2-116, tag not shown): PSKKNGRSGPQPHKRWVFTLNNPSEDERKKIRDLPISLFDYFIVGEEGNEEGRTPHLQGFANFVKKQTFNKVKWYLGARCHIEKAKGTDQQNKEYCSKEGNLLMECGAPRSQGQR
# Protocol: as §1
# [8] = tested on: T8, Rep nickase domain of tomato yellow leaf curl virus
# T8 sequence (residues 1-136, tag not shown): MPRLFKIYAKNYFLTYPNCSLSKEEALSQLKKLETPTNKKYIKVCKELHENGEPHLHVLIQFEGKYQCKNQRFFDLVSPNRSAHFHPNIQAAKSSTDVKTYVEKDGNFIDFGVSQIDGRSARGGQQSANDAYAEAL
# Protocol: as §1
# [9] = tested on: T9, Rep nickase domain of wheat dwarf virus
# T9 sequence (residues 1-137, tag not shown): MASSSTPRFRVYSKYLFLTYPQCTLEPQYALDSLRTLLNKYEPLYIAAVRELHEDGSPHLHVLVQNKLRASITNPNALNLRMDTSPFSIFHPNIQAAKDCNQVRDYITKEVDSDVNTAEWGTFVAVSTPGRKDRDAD
# Protocol: as §1
Sequence,uncleaved DNA left (log2) [1],uncleaved DNA left (log2) [2],uncleaved DNA left (log2) [3],uncleaved DNA left (log2) [4],uncleaved DNA left (log2) [5],uncleaved DNA left (log2) [6],uncleaved DNA left (log2) [7],uncleaved DNA left (log2) [8],uncleaved DNA left (log2) [9]
TAGGCCG,0.0397,0.0398,-0.861,-0.642,-0.036,-1.18,0.0607,0.00316,-0.0189
TCCCCGA,0.0429,-0.017,-0.128,-0.314,-0.101,-0.704,0.0558,0.0514,-0.054
CAAGACA,-0.0608,-0.0327,0.0643,-1.79,-0.0704,0.062,-0.0483,0.0167,-0.107
TAACTGA,0.0371,-0.00466,-0.142,-0.755,0.0158,1.14,0.072,-0.0523,0.0197
AACGTAG,0.0101,0.0145,-0.617,-0.809,0.0125,-1.07,0.213,0.064,0.00378
TGGCCGA,0.00443,-0.12,-0.0174,-0.0187,-0.0862,-0.377,0.0636,0.0638,0.167
GCAGTCC,-0.175,-0.0731,0.135,0.274,-0.133,0.173,0.00432,-0.0896,0.104
ACGCTGT,0.132,-0.0146,-0.116,0.0341,-0.0113,-0.0503,0.0557,-0.158,-0.0305
TTAACGA,0.151,0.0981,-0.35,-0.679,0.141,-0.691,0.208,0.152,0.0411
CAAGTAT,0.0828,-0.0476,-0.386,-1.14,0.0435,0.41,-0.00941,-0.0962,-0.117
GTGTAGT,-0.201,0.00382,0.42,0.803,0.0925,1.14,-2.27,0.278,0.183
AGATCCT,-0.0671,0.145,0.83,1.38,0.0912,2.16,-0.194,0.0397,0.174
TTGAAGT,0.113,-0.0499,-0.203,-0.709,0.00408,-0.966,-0.161,0.0293,-0.086
CGTATAG,0.172,0.104,-0.651,-0.388,0.0512,-0.845,0.196,0.0783,0.00859
GCGTCAA,0.000868,0.124,0.329,0.71,0.0857,0.695,0.158,0.122,0.14
GCCGGGG,0.0904,-0.0453,0.74,1.3,-0.0181,1.93,0.181,-0.125,0.0797
TCAACCT,-0.158,-0.0965,-0.184,-2.5,-0.031,-0.459,-1.16,0.0192,-0.0815
ATGCAAA,-0.0534,-0.0844,-0.161,-0.183,-0.0451,-0.901,0.0338,-0.0761,-0.0816
CGCTTCA,-0.117,-0.118,-0.215,-1.13,-0.0599,-0.678,-0.192,0.0183,-0.0519
GCGGACT,-0.0629,-0.00196,0.603,1.83,-0.0578,2.18,0.163,-0.0676,-0.0149

Sequence,uncleaved DNA left (log2) [1],uncleaved DNA left (log2) [2],uncleaved DNA left (log2) [3],uncleaved DNA left (log2) [4],uncleaved DNA left (log2) [5],uncleaved DNA left (log2) [6],uncleaved DNA left (log2) [7],uncleaved DNA left (log2) [8],uncleaved DNA left (log2) [9]
CGCCTGG,0.0038,0.0242,0.0568,0.338,0.0048,0.377,0.115,-0.0101,0.142
CCGTCCG,0.29,0.143,-0.547,0.164,0.176,-0.459,0.306,0.0685,-0.13
GACGCTA,-0.119,-0.0818,0.0614,-0.357,-0.105,0.316,0.0411,-0.0546,-0.0793
GTGCGAC,0.00635,-0.165,0.0643,0.506,-0.0346,0.466,0.155,-0.0299,-0.0403
ATGTTTT,-2.91,-1.33,-0.145,-2.22,-0.923,-0.412,-3.41,-0.146,-0.199
GTGTCCG,-0.0271,-0.00847,-0.411,-0.428,-0.0338,-0.531,0.0553,0.0236,-0.0339
GCGCTTG,-0.129,-0.317,-0.0445,0.184,-0.051,0.715,0.0524,-0.277,-0.133
CTCTTTC,-0.132,-0.118,0.0757,-0.544,-0.0478,-0.836,-0.0468,-0.118,-0.0239
GCCAGGT,0.0803,0.0372,0.313,1.01,0.153,1.23,0.0794,-0.0991,0.0606
TTAGTAA,0.122,0.0792,0.174,-0.18,-0.0767,0.0993,0.0532,-0.0917,-0.0582
ATACGCC,-0.0421,-0.00653,-0.277,-0.678,0.0372,-0.971,0.0431,-0.0661,-0.206
TGGCGCG,-0.187,-0.121,-0.869,-0.126,-0.06,-0.772,0.0481,-0.0961,-0.153
TGGGATG,0.157,0.0678,0.436,1.21,0.0105,1.44,0.178,-0.0489,-0.00738
GAAGATA,0.134,0.102,0.215,-0.857,0.156,1.05,0.19,0.147,0.102
CACGCTA,0.0838,-0.0728,-0.156,-1.9,-0.0863,-0.336,-0.028,-0.149,-0.141
TAGGTCA,0.0856,0.0158,0.294,-0.344,0.0529,1.04,-0.447,0.0606,0.0692
TTATTGT,-0.855,-0.0518,-1.37,-1.54,0.0938,-1.36,-0.685,0.0469,-0.245
TGGCCTT,0.0321,0.00178,0.409,0.0975,0.01,1.1,-0.165,0.153,0.194
TTTCATT,-1.05,-0.0752,-0.272,-2.28,-0.126,-0.435,-2.69,-0.0112,-0.0585
CATTCTC,-1.92,-2.55,-0.102,-0.444,-0.0444,-0.861,-2.01,0.0181,-0.0622

Sequence,uncleaved DNA left (log2) [1],uncleaved DNA left (log2) [2],uncleaved DNA left (log2) [3],uncleaved DNA left (log2) [4],uncleaved DNA left (log2) [5],uncleaved DNA left (log2) [6],uncleaved DNA left (log2) [7],uncleaved DNA left (log2) [8],uncleaved DNA left (log2) [9]
CGGGGAC,-0.111,0.0289,0.947,1.48,-0.195,2.23,0.155,-0.102,-0.0211
GACCGGA,0.0473,0.0645,0.243,0.643,0.0222,0.303,0.134,0.0431,0.0457
TTCTCAG,0.0582,-0.0798,-0.586,-0.763,0.0691,-1.23,0.0755,0.0142,-0.0853
AGGGGCT,-0.0453,0.0454,0.439,1.23,-0.0221,1.69,0.198,-0.0812,0.102
GTGACCG,-0.00156,0.00559,0.00769,0.576,-0.0302,0.174,0.0141,-0.091,-0.034
TGGGAGA,-0.0719,0.0625,0.828,1.66,0.0963,2.04,0.307,0.0974,0.0546
TAATGAA,-0.916,-0.0596,-2.75,-2.25,0.0547,-0.883,-2.03,-0.0243,-1.36
TGGTAGC,0.0238,-0.203,0.00487,0.0189,-0.073,-0.312,0.056,-0.0805,-0.0344
ATGTTGA,0.00928,0.0335,-0.205,-0.318,0.148,-0.915,-0.16,-0.0852,-0.119
CTCCCCA,-0.0315,0.0873,0.063,-0.727,0.0794,-0.355,-0.217,0.0551,0.217
CATAAAG,-0.081,-0.0693,-0.706,-0.13,0.0213,-1.09,0.0876,0.00572,-0.1
CTACCAC,-0.201,-0.14,-0.265,-1.9,-0.156,-0.807,-0.812,-0.00598,-0.129
GATCTGT,0.163,0.0112,0.174,0.445,0.0746,1.1,0.0602,0.00824,0.0265
TTGCGCG,-0.188,-0.0589,-1.01,0.145,-0.0569,-0.959,-0.245,-0.228,-0.167
GACTAGG,0.0308,0.0735,0.348,1,0.00861,0.82,0.169,0.0602,0.0764
GCCGCTA,-0.0215,-0.0438,-0.00936,-0.0726,-0.0384,-0.0492,0.0512,0.0155,-0.0507
CGCGACT,0.0256,0.117,0.00651,0.584,0.115,1.59,0.0927,-0.0353,0.142
GAACGTG,-0.077,-0.0946,-0.0604,-0.024,-0.0121,-0.196,0.022,-0.201,0.00026
GACAGCC,-0.0566,-0.0309,0.368,0.807,0.0105,0.471,0.0224,-0.11,-0.0754
TCTTATA,-0.00517,0.0777,-0.0614,-1.58,0.0916,-0.256,-0.229,-0.0377,0.0281
